Measurements from publication PMC4336329 (PLoS ONE, 2015).
Out of some 310,000 compounds screened, about 14,000 (4.5%) showed an effect of 50% or more. Effects have a minus sign here. The list shows a part of the results.

Target: human ether-à-go-go-related gene (hERG) potassium channel (human, UniProt Q12809)
Experiment: primary screen, population patch clamp on CHO cells stably expressing hERG
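Note: peak tail current of the secondary pulse compared with the same well before compound.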

Sequence of human ether-à-go-go-related gene (hERG) potassium channel (Q12809 whole entry, looked up): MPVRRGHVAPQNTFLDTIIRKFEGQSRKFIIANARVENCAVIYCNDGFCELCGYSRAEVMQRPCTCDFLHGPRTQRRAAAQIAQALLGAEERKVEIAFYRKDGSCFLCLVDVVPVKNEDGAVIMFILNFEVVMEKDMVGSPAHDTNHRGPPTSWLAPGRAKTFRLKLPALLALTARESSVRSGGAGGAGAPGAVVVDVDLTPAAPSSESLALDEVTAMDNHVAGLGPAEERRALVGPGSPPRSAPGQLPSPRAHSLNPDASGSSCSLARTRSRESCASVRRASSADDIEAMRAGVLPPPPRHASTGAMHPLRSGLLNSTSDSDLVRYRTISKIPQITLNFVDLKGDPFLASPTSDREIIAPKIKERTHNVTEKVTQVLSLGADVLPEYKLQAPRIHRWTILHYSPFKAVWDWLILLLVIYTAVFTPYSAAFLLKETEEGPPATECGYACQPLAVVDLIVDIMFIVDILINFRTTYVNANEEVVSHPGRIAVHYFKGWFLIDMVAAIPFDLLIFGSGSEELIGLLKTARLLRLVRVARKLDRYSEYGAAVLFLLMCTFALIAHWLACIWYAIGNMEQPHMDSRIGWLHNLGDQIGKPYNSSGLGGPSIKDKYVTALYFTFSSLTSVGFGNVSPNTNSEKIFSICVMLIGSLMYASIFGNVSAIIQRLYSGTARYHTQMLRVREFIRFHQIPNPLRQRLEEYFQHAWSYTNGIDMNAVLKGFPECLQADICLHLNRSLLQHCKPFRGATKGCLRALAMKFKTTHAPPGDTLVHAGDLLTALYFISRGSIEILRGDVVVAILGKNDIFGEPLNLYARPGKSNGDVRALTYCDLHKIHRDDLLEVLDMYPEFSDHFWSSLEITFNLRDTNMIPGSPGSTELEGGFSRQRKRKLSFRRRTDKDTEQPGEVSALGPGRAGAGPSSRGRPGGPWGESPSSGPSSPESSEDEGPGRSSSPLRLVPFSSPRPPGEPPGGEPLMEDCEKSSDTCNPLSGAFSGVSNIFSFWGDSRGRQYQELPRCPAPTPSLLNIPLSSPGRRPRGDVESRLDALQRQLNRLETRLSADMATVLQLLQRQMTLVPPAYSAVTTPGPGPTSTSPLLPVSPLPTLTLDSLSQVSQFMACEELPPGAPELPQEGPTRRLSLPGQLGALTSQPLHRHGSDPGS

| Structure (SMILES) | hERG current change (%, negative = inhibition) at 10uM [%] |
| --- | --- |
| CCCCC(=O)Nc1ccc(NC(=O)c2cc(OC)c(OC)c(OC)c2)cn1 | 6.22 |
| Cc1ncn(-c2ccccc2)c1-c1ccccc1 | -6.91 |
| Cn1c(CCC(=O)OCC(=O)NCC(F)(F)F)nc(=O)c2ccccc21 | 8.92 |
| O=C(CN(C(=O)c1csnn1)c1ccc(F)c(Cl)c1)NC1CCCCC1 | 19.3 |
| CC1=CC(C)(C)N2C(=O)C3(SCC(=O)N3c3ccc(F)cc3)c3cc(C)cc1c32 (stereo not shown) | -6.42 |
| COc1ccc(Cl)cc1S(=O)(=O)N1CCN=C1c1ccccc1 | -5.83 |
| CC(=O)NS(=O)(=O)c1ccc(NC(=S)NC(=O)C(C)C)cc1 | 12.9 |
| O=C(Cn1ncc2c([nH]c3ccccc32)c1=O)NCCCN1CCN(c2ccccc2)CC1 | -21.5 |
| Cc1cc(C)cc(NC(=O)c2ccc(CSc3nnc(C)s3)cc2)c1 | 6.51 |
| Cc1cc(C)cc(NC(=O)N2CCc3ccccc3C2)c1 | 11.7 |
| CN(Cc1nccn1C)C(=O)c1ccc(OC2CCN(CCc3ccccc3)CC2)cc1 | -38.3 |
| Cc1cc(NCc2ccccn2)n2ncc(-c3ccccc3)c2n1 | -8.46 |
| Cc1cccc(NS(=O)(=O)c2cccc([N+](=O)[O-])c2)n1 | 4.28 |
| NC1C2CN3CCN(C2)CC1(c1ccccc1)C3 (stereo not shown) | 30.9 |
| O=C(c1ccccc1)N1CCc2[nH]nc(-c3ccccc3)c2C1 | -4.26 |
| CC(=O)Nc1ccc(C(=O)COC(=O)c2cccs2)c(F)c1 | 7.71 |
| CCn1ncc(CN2CCCC(C(=O)Nc3cccc(-c4cc5ccccc5[nH]4)c3)C2)c1C (stereo not shown) | -56.7 |
| O=c1c(CN2CCN(c3ccccn3)CC2)coc2ccccc12 | -17.8 |
| O=C(Cc1c[nH]c2ccccc12)Nc1ccc(N2CCOCC2)cc1 | 2.86 |
| Cn1c(CC(=O)NN)c(Sc2ccccc2)c2ccccc21 | 4.62 |
| Cc1ccc(Nc2nc(=O)[nH]nc2C)cc1 | -9.45 |
| COc1ccc(C(=S)N2CCCC2)cc1OC | 2.36 |
| Cc1cccc(COc2ccc(/C=N/NC(=O)c3nnn(-c4nonc4N)c3C)cc2)c1 | 15.3 |

| Structure (SMILES) | hERG current change (%, negative = inhibition) at 10uM [%] |
| --- | --- |
| CCN(CC)CCCNC(=O)C1c2ccccc2C(=O)N1Cc1ccc(C)cc1 (stereo not shown) | -20.5 |
| CN(C)CCNc1nc2c(c(=O)[nH]c(=O)n2C)n1CC(O)COc1ccc(Cl)cc1Cl (stereo not shown) | -55 |
| O=S(=O)(Nc1ccc2c(c1)OCO2)c1ccccc1 | -36.1 |
| Cc1cccc(C)c1NC(=O)COC(=O)c1cc(-c2cccnc2)nc2ccccc12 | -1.68 |
| O=C(CSc1ccc(-c2ccco2)nn1)NCCc1ccccc1 | -12.4 |
| N#CCCN(Cc1cccs1)C(=O)c1ccc(Cl)cc1 | -6.3 |
| Cc1c(C(=O)Nc2c(F)cccc2F)sc2ncnc(N3CCN(c4ccccc4)CC3)c12 | -12.2 |
| CCC(=O)Nc1ccc(C(=O)COC(=O)Cc2ccsc2)cc1 | -6.06 |
| Cc1cc(C)cc(NC(=O)C2CCCN2S(=O)(=O)c2ccc3c(c2)C(C)(C)C(=O)N3C)c1 (stereo not shown) | -38.7 |
| Cc1ccc(S(=O)(=O)N2CCN(c3ccc(S(=O)(=O)N4CCOCC4)cn3)CC2)cc1 | 12.2 |
| O=C(CC(=O)NCc1ccc(Cl)cc1)NCc1ccc(Cl)cc1 | 4.44 |
| CCN(C(=O)CSc1nnc(-c2ccccc2)n1C)C1CCS(=O)(=O)C1 (stereo not shown) | 0.82 |
| Cc1noc(C)c1C(=O)OCC(=O)c1c(N)n(CC(C)C)c(=O)n(C)c1=O | -24.5 |
| CN1CCN(c2ccc(CNC(=O)c3ccco3)cc2)CC1 | 10.7 |
| COc1ccc(S(=O)(=O)NCCN2CCOCC2)c2ccccc12 | 2.52 |
| COc1ccc(C2(C)NC(=O)N(CC(=O)Nc3ccc(Br)c(C)c3)C2=O)cc1OC (stereo not shown) | 2.17 |
| CCOC(=O)C1(CCOC)CCN(Cc2cc3ccccc3s2)CC1 | -22.5 |
| O=C(Nc1cccnc1)Nc1ccc(Cl)cc1Cl | 15 |
| CCOC(=O)C1(CCOC)CCN(Cc2ccc3nonc3c2)CC1 | -10.5 |
| Cc1ccc2[nH]c3nc(NN)nnc3c2c1 | 14.5 |
| S=c1[nH]nc2n1CCCN2 | 12.7 |
| Cc1ccc(C(=O)Nc2cccc(C(=O)NCc3ccco3)c2)cc1 | -10.6 |
| O=C(NNC(=O)c1cnccc1C(F)(F)F)c1ccc(Cl)cc1 | 11.1 |

| Structure (SMILES) | hERG current change (%, negative = inhibition) at 10uM [%] |
| --- | --- |
| CCCCc1nc(SCC(=O)Nc2nnc(CCCC)s2)n[nH]1 | -18 |
| Cc1ccc(C(=O)N/C(=C\c2cccs2)C(=O)NCc2cccnc2)cc1 | -58 |
| CC(=O)c1ccc(OCCCC(=O)N(CCC2=CCCCC2)c2c(N)n(Cc3ccccc3)c(=O)[nH]c2=O)cc1 | -21.6 |
| CC(O)CNCCCOc1cccc(Oc2ccccc2)c1.O=C(O)C(=O)O (stereo not shown) | -10.9 |
| N#C/C(=C(/O)COC(=O)CCc1ccc(S(=O)(=O)N2CCOCC2)cc1)c1nc2ccccc2[nH]1 | 3.02 |
| CCOC(=O)N1CCN(C(=O)Cc2ccc(C)cc2)CC1 | 10.8 |
| COC(=O)c1nc(N)sc1-c1ccc(OC)cc1 | 10.3 |
| O=C(CSc1ccc(Cl)cc1)Nc1ccc(C2SCCS2)cc1 | 3.84 |
| Cc1cc(NC(=O)c2nn3cccnc3c2Cl)no1 | 6.12 |
| O=C(NCC(=O)N1CCN(c2ccccc2)CC1)c1ccco1 | 3.36 |
| CCOc1ccc(NC(=O)CN(C)C(=O)Cc2c[nH]c3ccccc23)cc1OCC | -22.8 |
| O=C(/C=C/c1cccc(Oc2ccccc2)c1)N1CCOCC1 | -4.94 |
| Cc1nc2ccc(S(=O)(=O)NCC(=O)NCCN3CCCCC3C)cc2s1 (stereo not shown) | 11 |
| CCNCc1nc2cc(Cl)ccc2c(=O)[nH]1.Cl | 4.64 |
| O=C(NCc1ccco1)c1cc2nc(C3CC3)cc(C(F)(F)F)n2n1 | -8.47 |
| CCOc1ccc(N(CC(=O)NCCc2ccc(F)cc2)S(=O)(=O)c2ccccc2)cc1 | 6.25 |
| CC(C)c1ccc(C(CC(=O)c2ccc(Cl)cc2)C(=O)O)cc1 (stereo not shown) | -5.49 |
| CCOC(=O)c1nnn(CC(=O)NC(=O)Nc2cccc(CC)c2)c1C(=O)OCC | 3.55 |
| Cn1c(-c2ccc(F)cc2)cnc1SCC(=O)N1CCCc2ccccc21 | -24.8 |
| COc1cc(C(=O)N(C)Cc2cccc(OC)c2OC)ccc1OCC(=O)Nc1cccc(C(F)(F)F)c1 | -17 |
| Cc1ccc(/C=N/NC(=O)c2ccncc2)o1 | 2.31 |
| C=CCNC(=O)c1ccc(N(CC=C)S(C)(=O)=O)cc1 | -1.41 |
| O=C(CN1CCN(S(=O)(=O)c2ccc(Cl)cc2)CC1)NC1CCCC1 | -50.2 |

| Structure (SMILES) | hERG current change (%, negative = inhibition) at 10uM [%] |
| --- | --- |
| O=C(CC1SC(=Nc2ccccc2)N(CCCCO)C1=O)NCc1ccccc1 (stereo not shown) | -36.7 |
| c1csc(-c2noc(CN3CCOCC3)n2)c1 | 17.1 |
| CC(=O)c1ccc(NC(=O)CCCC(=O)c2ccccc2)cc1 | 12.6 |
| CCCNC(=O)COC(=O)c1cc(-c2ccc(OC)cc2)nc2ccccc12 | 4.28 |
| CC1CC(C)CN(S(=O)(=O)c2ccccc2[N+](=O)[O-])C1 (stereo not shown) | -10.2 |
| CCCCCCCCOC(=O)c1ccc(N)cc1 | 10.2 |
| CCn1cc(Br)c(C(=O)Nc2cccc(SC)c2)n1 | -9.93 |
| CCN1CCN(Cc2ccc(NC(=O)Nc3cccs3)cc2)CC1 | 10.1 |
| O=C(CN1CCN(c2ccccn2)CC1)Nc1ccc2ccccc2c1 | -43.9 |
| O=C(c1cccc(S(=O)(=O)Nc2cccc(C(F)(F)F)c2)c1)N1CCCCC1 | -7.67 |
| Cc1ccc(C)c(S(=O)(=O)NCC(c2ccc3c(c2)OCO3)N2CCOCC2)c1 (stereo not shown) | -22.4 |
| Cc1nc(N2CCOCC2)c(C#N)c(C)c1Br | -8.78 |
| Cl.O=C(CCN1CCN(C/C=C/c2ccccc2)CC1)Nc1ccccc1Cl | -76.4 |
| C=CCn1c2ccccc2c2nnc(SC(CC)C(=O)Nc3sc4c(c3C#N)CCCC4)nc21 (stereo not shown) | 18.8 |
| CCOc1ccc(N(CC(=O)Nc2ccc(F)c(F)c2)S(=O)(=O)c2c(C)noc2C)cc1 | -9.69 |
| CC(C)(C)c1cc(C(=O)O)n[nH]1 | -5.87 |
| COc1ccc(N/C=C2\C(=O)CCc3c2oc2cc(Cl)c(O)c(Cl)c32)cc1 | 19.4 |
| COc1ccc(-n2nc(C(=O)NCC(=O)N(C)Cc3ccccc3)c3ccccc3c2=O)c(OC)c1 | 8.57 |
| CCCn1c(SCC(=O)NCc2ccc(OC)cc2)n[nH]c1=O | -8.25 |
| Cc1c(C=N)c(O)n(C)c(=O)c1C#N | 10.8 |
| CCCCSP1(=S)NCCCO1 (stereo not shown) | -14.8 |
| Cc1ccc(/C=N/NC(=O)Cn2nnc(N)n2)cc1 | 7.14 |
